Measurements taken from PubChem BioAssay AID662 (National Center for Advancing Translational Sciences (NCATS), 2007).
Hit rate of the full screen: of about 71,000 compounds, about 1,800 (2.5%) were called active. Inconclusive means that the source gave no clear call. Such entries were picked first, then a sample of the others. The call rests on the fitted dose curve; in most records, active means well fitted activation curve with a large enough effect in the signal ratio, with a control signal flat (not every such curve was filed as active); inconclusive means small, poorly fitted or top-dose-only effect, or effect the other way, or a change in a side signal; inactive means flat fitted curve, though single readings scatter; the % refers to the signal ratio. Potencies beside an inconclusive call are fits to weak or partial responses and may not hold up.

Assay: Cell signaling CRE-BLA (Fsk stim); on activity change, negative = inhibition: % of control where 0% means no effect
Conditions: CHO CRE-bla reporter (cAMP response element driving beta-lactamase), forskolin EC10, beta-lactamase ratio; activity change, negative = inhibition: at 38.2 µM (top of the series) unless noted
Method in brief: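 CRE-bla CHO reporter cells treated with compound titration plus EC10 NKH 477 (water-soluble forskolin), incubated 3 h at 37 °C; CCF4 loading 2 h at room temperature, 460/530 nm emission ratio read, AC50 values derived for positive or negative modulators.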
Potency means the concentration at half of the fitted maximal effect; tags describe the fitted curve by direction and shape.

| SMILES | Potency | activity change, negative = inhibition |
| --- | --- | --- |
| CN(C)c1nc(N)nc(CSc2nnnn2-c2cccc3ccccc23)n1 | inconclusive: 12.6 µM [rising, partial curve] |  |
| CC1CC(C)CN(CCCNC(=O)CNC(=O)Cn2ccc3ccccc3c2=O)C1 (configuration not stated) |  | inconclusive: 16.1% |
| CCOC(=O)C1=C(N)n2c(s/c(=C\c3cccnc3)c2=O)=C(C#N)C1c1cccnc1 (configuration not stated) | inactive |  |
| O=C(CSc1nnc(-c2ccncc2)o1)Oc1ccccc1 | inactive |  |
| COc1c2occc2c(OC)c2c(=O)cc(C)oc12 | active: 7.94 µM |  |
| Cn1c(C(=O)NCCCN2CCOCC2)cc2c(=O)n(C)c3ccccc3c21 | inconclusive: 10 µM [rising, partial curve] |  |
| CNc1ncnc2ccc(-c3ccccc3OC)cc12 | inconclusive: 10 µM [rising, partial curve] |  |
| O=C(c1ccco1)N1CCN(C(=O)c2cccn3c(=O)c4c5c(sc4nc23)CCCC5)CC1 | inconclusive: 10 µM [rising, partial curve, poor fit] |  |
| CC(=O)c1c(C)nn(C(=O)c2cccs2)c1C | inconclusive: 7.94 µM [falling, partial curve] |  |
| CCn1c(CCNC(=O)c2ccc(OC)c(OC)c2)nc2ccccc21 | active: 12.6 µM |  |
| COc1ccc2c(CCNC(=O)c3ccco3)c[nH]c2c1 |  | inconclusive: 0.744% |
| CC(C)N1CC2=C(OC(N)=C(C#N)C2c2cccnc2)/C(=C/c2cccnc2)C1 (configuration not stated) | inactive |  |
| COc1cc(C(=O)N2CCN(c3cccc(C)c3C)CC2)cc(OC)c1OC | active: 10 µM |  |
| COC(=O)Cc1ccc(NC(=O)c2cccs2)cc1 | inactive |  |
| CC1=C(C(=O)OCc2ccccc2)C(c2ccc(N3CCOCC3)cc2)NC(=O)N1 (configuration not stated) | inactive |  |
| COc1ncc2nc(-c3cc(F)cc(F)c3)c(=O)n(C)c2n1 | inactive |  |
| Cc1ccccc1Nc1nc(CSc2nnc(-c3ccoc3C)n2C)cs1 | inactive |  |
| Cc1ccc(CN2C(=O)CCC2C(=O)NCCN2CCN(c3cccc(Cl)c3)CC2)cc1 (configuration not stated) | inactive |  |
| COc1ccc(S(=O)(=O)CCC(=O)N2CC(=O)N(CCc3ccccc3)C(=O)C2)cc1 | inconclusive: 0.631 µM [rising, full curve] |  |
| Cc1ccc(-c2cc(C(F)(F)F)n3nc(C(=O)N4CCCC4)cc3n2)cc1 |  | inconclusive: 24.3% [at 7.6 µM] |
| CCC(C)C1C(C#N)=C(N)OC2=C1C(=O)CC(C)(C)C2 (configuration not stated) | inconclusive: 5.01 µM [rising, partial curve] |  |

| SMILES | Potency | activity change, negative = inhibition |
| --- | --- | --- |
| COc1ccc(C(=O)c2c[nH]c3ccccc23)cc1 | inconclusive: 0.00316 µM [falling, full curve, poor fit] |  |
| COc1cccc(Cn2c(=O)cnc3cnc(OCc4ccccc4)nc32)c1 | inconclusive: 12.6 µM [rising, single point] |  |
| CCN(CC)CCNCc1ccc(-c2ccc(Cl)cc2)o1 |  | inconclusive: 1.83% |
| CCC(c1nnc(SCC(=O)Nc2ccc(C(=O)Nc3ccccc3OC)cc2)o1)N(C)C (configuration not stated) | inconclusive: 3.16 µM [falling, single point] |  |
| Cn1nc(-c2ccc(C(=O)NCC3CCCO3)cc2)c2ccccc2c1=O (configuration not stated) | inconclusive: 12.6 µM [rising, single point] |  |
| Cc1ccccc1CN1C2=NCCN2C(=O)C2=C1CCN(Cc1ccccc1)C2 | inconclusive: 5.01 µM [rising, single point] |  |
| O=C(CCN1CCOCC1)Nc1cccc(Br)c1 |  | inconclusive: 17.4% |
| CCOC(=O)c1ccccc1NC(=O)CSc1ncc(C(=O)OCC)c(N)n1 |  | inconclusive: 2.05% |
| CC1CCCC(C)N1C(=O)COc1ccc(-c2nnco2)cc1 (configuration not stated) | inconclusive: 3.98 µM [falling, single point] |  |
| COc1ccccc1Nc1nc(N)nc(-c2cc3ccccc3o2)n1 | inactive |  |
| Cc1ccc(-c2noc(-c3cccs3)n2)cc1 | inactive |  |
| Cc1nc2cc3nc(C)sc3cc2s1 |  | inconclusive: 16.1% |
| CCOC(=O)c1c(-c2cccs2)csc1NC(=O)COC(=O)c1c(C)noc1C | active: 2.51 µM |  |
| Fc1ccc(-c2cc3nc(-c4ccccc4)cc(N4CCN(CCN5CCOCC5)CC4)n3n2)cc1 | active: 10 µM |  |
| Cc1ccc(-n2c(SCC(=O)OC(C)C)nnc2-c2ccccn2)cc1 |  | inconclusive: -25.9% |
| CCOc1ccc(CN2CCC(=O)NC2=O)cc1 | inconclusive: 0.2 µM [rising, full curve] |  |
| Cc1noc(C)c1C(=O)N1CCC2(CCCN(C(=O)Nc3cccc(C#N)c3)C2)CC1 | inactive |  |
| Cc1cccc(NC(=O)Cn2cnc3sc(C)c(S(=O)(=O)N4CCC(C)CC4)c3c2=O)n1 |  | inconclusive: 8.38% |
| Clc1ccccc1-c1nc(-n2ccnc2)c2ccccc2n1 |  | inconclusive: 26.1% |
| CCOc1c(OC)cccc1C1CC(=O)Nc2cc(OC)c(OC)cc21 (configuration not stated) |  | inconclusive: 27.3% |
| Cc1cc(C)nc(N2CCCC(C(=O)Nc3nc4ccc(S(C)(=O)=O)cc4s3)C2)n1 (configuration not stated) |  | inconclusive: 13% |

| SMILES | Potency | activity change, negative = inhibition |
| --- | --- | --- |
| Cc1ccccc1NS(=O)(=O)c1ccc(NC(=O)c2ccco2)cc1 | inconclusive: 10 µM [rising, single point] |  |
| CC(C)N(Cc1cc2ccccc2[nH]c1=O)C(=O)C1CCCCC1 | inconclusive: 12.6 µM [rising, partial curve] |  |
| CCOC(=O)c1[nH]c2ccc(OCC)cc2c1NC(=O)CN1CCC2(CC1)OCCO2 | inconclusive: 5.01 µM [rising, partial curve] |  |
| CN(C)c1ncc2nc(-c3ccc(F)cc3)c(=O)n(C)c2n1 | active: 2.51 µM |  |
| COc1ccc(CC(=O)OCc2cc3ccc(C)cc3[nH]c2=O)cc1 |  | inconclusive: 7.71% |
| N#Cc1c(-c2ccco2)cc(-c2ccc(F)cc2)nc1N | active: 12.6 µM |  |
| Cc1cc(C)n(-c2nc3ccccc3n3nnnc23)n1 |  | inconclusive: 2.56% |
| CC(C)C[C@H](N)c1nnc(S(=O)(=O)Cc2ccc(F)cc2)o1 | inconclusive: 3.98 µM [falling, single point] |  |
| CC1CCN(c2oc(Cc3cccc4ccccc34)nc2C#N)CC1 | inconclusive: 2.51 µM [rising, full curve, poor fit] |  |
| N#Cc1nc(-c2ccccc2Cl)oc1NCc1ccco1 | inconclusive: 12.6 µM [rising, partial curve] |  |
| O=C(CC1OC(=O)c2ccccc21)Nc1ccccc1N1CCOCC1 (configuration not stated) | inconclusive: 12.6 µM [rising, single point] |  |
| Cc1nc(C)c(C(=O)C2=C(O)C(=O)N(CCCN(C)C)C2c2ccco2)s1 (configuration not stated) | inactive |  |
| COc1c(C)cc(Br)cc1C(=O)Nc1ccc(N2CCN(S(C)(=O)=O)CC2)cc1 | inactive |  |
| O=C1CSC(c2nn(-c3ccccc3)cc2-c2cc3ccccc3oc2=O)N1Cc1ccco1 (configuration not stated) | inactive |  |
| O=C(O)C1C2C=CC(C2)C1C(=O)Nc1cccc(F)c1 (configuration not stated) | inactive |  |
| COc1ccc(-c2nc3cnc(Nc4ccccc4)nc3n(Cc3cccs3)c2=O)cc1 | inconclusive: 5.01 µM [rising, partial curve] |  |
| Cc1cc2ccccc2n1CCNC(=O)C1CCCC1 | inactive |  |
| COc1cc2c(cc1OC)-c1cc(Nc3ccc4c(c3)OCCO4)nc(=O)n1CC2 | active: 2.51 µM |  |
| O=C(O)C12CC3CC(C1)CC(n1cnc(Cl)n1)(C3)C2 | inactive |  |
| CCCS(=O)(=O)c1c(S(=O)(=O)CCC)c2cc(CC)ccn2c1C(=O)OC | inconclusive: 15.8 µM [rising, partial curve] |  |
| OC(c1cccc(OCc2ccccc2)c1)c1nnc(-c2ccccc2)o1 (configuration not stated) | inconclusive: 5.01 µM [falling, single point] |  |

| SMILES | Potency | activity change, negative = inhibition |
| --- | --- | --- |
| COc1cccc(Cn2c(Oc3cccc(C)c3)nc3c2c(=O)n(C)c(=O)n3C)c1 |  | inconclusive: -9.96% |
| CCC1C(O)=C(c2ccccn2)C(=N)N1c1ccccc1 (configuration not stated) | inactive |  |
| COC(=O)CCC(=O)COc1ccc(OC)cc1C#N |  | inconclusive: 2.57% |
| CCOC(=O)c1oc2ccccc2c1NC(=O)C1CCCCC1 |  | inconclusive: 9.19% |
| O=C1CN(C(=O)CCCc2c[nH]c3ccccc23)c2ccccc2N1 | inconclusive: 25.1 µM [rising, single point] |  |
| CCOC(=O)CSc1nnc(CNC(=O)c2cccs2)n1-c1cc(OC)ccc1OC |  | inconclusive: -6.62% |
| O=C(CN1CCCCC1)Nc1cccc(Br)c1 |  | inconclusive: 23% |
| Oc1ccc(Cl)cc1Cc1cc(Cl)cc(Cc2cc(Cl)ccc2O)c1O |  | inconclusive: 7.83% [at 7.6 µM] |
| CN(C)c1ncc2nc(-c3ccc(Cl)cc3)c(=O)n(Cc3ccc(F)cc3)c2n1 | inconclusive: 0.398 µM [rising, full curve] |  |
| CCc1nc2ccccc2n1CCC(C)C |  | inconclusive: -6.57% |
| COc1ccccc1-c1nc(C#N)c(N2CCN(Cc3ccccc3)CC2)o1 | active: 12.6 µM |  |
| CCOC(=O)c1ccccc1NC1c2ccccc2C(=O)N1C1CCN(C(=O)OCC)CC1 (configuration not stated) | inactive |  |
| CN(CCc1ccccn1)C(=O)c1nn2c(C(F)(F)F)cc(-c3ccco3)nc2c1Cl | active: 3.16 µM |  |
| COc1ccc(NC(=O)C2OCCc3ccccc32)c(OC)c1 (configuration not stated) |  | inconclusive: 13.3% |
| Cn1c(=O)c(-c2ccc(F)cc2)nc2cnc(OCc3ccccc3)nc21 | active: 12.6 µM |  |
| O=C1CC(c2ccc3c(c2)OCO3)c2cc3c(cc2N1)OCO3 (configuration not stated) |  | inconclusive: 48.7% |
| CCNc1ncc2nc(-c3ccccc3)c(=O)n(C3CC3)c2n1 | inconclusive: 7.94 µM [rising, partial curve] |  |
| Cc1cc(NCCCn2ccnc2)n2c(nc3ccccc32)c1C#N | inactive |  |
| CC1(C)N=C(c2cccc(F)c2)C(=O)N1 | inactive |  |
